# Data as given in paper PMC4336329 (PLoS ONE, 2015).
# Hit rate of the full screen: of about 310,000 compounds, about 14,000 (4.5%) showed an effect of 50% or more. Effects have a minus sign here. This is one part of the list.
# Biological target: human ether-à-go-go-related gene (hERG) potassium channel (human, UniProt Q12809)
# Assay: primary screen, population patch clamp on CHO cells stably expressing hERG
# 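Note: peak tail current of the secondary pulse compared with the same well before compound.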
# human ether-à-go-go-related gene (hERG) potassium channel, sequence (Q12809 whole entry, looked up): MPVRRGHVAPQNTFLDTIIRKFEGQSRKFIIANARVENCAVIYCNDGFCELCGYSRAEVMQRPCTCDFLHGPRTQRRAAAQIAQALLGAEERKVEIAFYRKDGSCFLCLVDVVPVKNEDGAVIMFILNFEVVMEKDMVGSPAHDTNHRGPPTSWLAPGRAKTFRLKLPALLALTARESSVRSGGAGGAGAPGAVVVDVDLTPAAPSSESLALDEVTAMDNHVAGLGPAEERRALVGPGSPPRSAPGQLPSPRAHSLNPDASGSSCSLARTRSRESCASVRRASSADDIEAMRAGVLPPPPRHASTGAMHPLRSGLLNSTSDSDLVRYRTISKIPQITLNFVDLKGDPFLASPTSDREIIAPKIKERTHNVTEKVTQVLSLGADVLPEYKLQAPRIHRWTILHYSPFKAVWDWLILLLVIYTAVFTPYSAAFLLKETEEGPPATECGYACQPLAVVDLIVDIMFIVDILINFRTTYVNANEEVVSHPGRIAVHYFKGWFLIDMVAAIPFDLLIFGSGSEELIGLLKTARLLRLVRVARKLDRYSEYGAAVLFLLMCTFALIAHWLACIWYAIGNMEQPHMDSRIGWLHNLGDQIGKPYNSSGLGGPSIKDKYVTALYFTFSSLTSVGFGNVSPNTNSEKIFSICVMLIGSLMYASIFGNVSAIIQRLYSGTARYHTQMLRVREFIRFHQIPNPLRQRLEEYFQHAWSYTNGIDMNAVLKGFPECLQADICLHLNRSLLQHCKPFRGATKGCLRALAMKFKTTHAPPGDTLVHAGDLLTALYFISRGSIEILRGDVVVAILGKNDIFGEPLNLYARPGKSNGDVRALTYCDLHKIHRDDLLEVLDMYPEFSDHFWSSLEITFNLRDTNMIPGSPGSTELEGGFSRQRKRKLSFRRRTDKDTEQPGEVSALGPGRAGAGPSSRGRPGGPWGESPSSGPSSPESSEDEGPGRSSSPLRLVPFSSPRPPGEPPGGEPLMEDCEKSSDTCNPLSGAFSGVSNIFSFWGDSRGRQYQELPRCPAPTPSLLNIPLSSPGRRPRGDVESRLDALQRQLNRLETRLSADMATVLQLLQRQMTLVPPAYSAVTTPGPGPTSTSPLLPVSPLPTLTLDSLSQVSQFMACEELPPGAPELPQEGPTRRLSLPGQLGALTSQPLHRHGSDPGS
row,SMILES,"hERG current change (%, negative = inhibition) at 10uM [%]"
1,COc1ccc(/C=C/C(=O)Nc2ccc(OC)nc2)cc1,-0.724
2,CNCC/C=C1/c2ccccc2CSc2ccccc21.Cl,-11.3
3,CCOc1ccccc1N1CN(Cc2ccccc2)CNC1=S,2.61
4,COC(=O)CCc1ccc(OCC(O)CNC(C)C)cc1.Cl (centres unmarked),-2.4
5,Cc1ccc(/C(O)=C2/C(=O)C(=O)OC2c2ccc(Cl)cc2)cc1 (centres unmarked),12.6
6,Cc1ccnc(NS(=O)(=O)c2ccc(NC(=O)CSc3nc(-c4ccccc4)cc(=O)[nH]3)cc2)n1,28.6
7,CCN(C(=O)CSc1nnc(-c2ccncc2)n1-c1ccccc1)C1CCS(=O)(=O)C1 (centres unmarked),14.9
8,Cc1noc(C)c1C(=O)OCC(=O)NCCc1ccc(Cl)cc1,-10.8
9,COC(=O)c1c(NC(=O)C2COc3ccccc3O2)sc2c1CCN(Cc1ccccc1)C2.Cl (centres unmarked),-21.7
10,Cc1ccccc1NS(=O)(=O)c1ccc(C(=O)N2CCN(S(=O)(=O)c3ccccc3)CC2)cc1,24
11,Cc1nnc(-c2ccc(N3CCCCCC3)c([N+](=O)[O-])c2)o1,-4.52
12,CCOC(=O)C(CC)Sc1ncnc2c1nnn2-c1ccc(F)cc1 (centres unmarked),-0.503
13,CCOc1ccc(NC(=O)CN(C)C(=O)C2CCN(C(=O)c3ccc(Cl)cc3)CC2)cc1OCC,-48.1
14,O=C(CCNS(=O)(=O)c1ccccc1)OCC(=O)c1ccc[nH]1,0.977
15,C#Cc1ccc([C@@H]2C=C(C(=O)N3CCOCC3)O[C@H](OCC)[C@H]2CCCO)cc1,-2.34
16,COc1c(F)c(F)cc2c(=O)c(C(=O)O)cn(C3CC3)c12,-2.34
17,CC(=C/c1ccccc1)/C=N/n1c(-c2ccco2)n[nH]c1=S,7.11
18,CCOc1cc(CNn2cnnc2)cc(Br)c1OCC(=O)NC1CCCCC1,-7.6
19,O=C(c1ccc(Br)o1)N1CCCc2ccccc21,-0.525
20,O=C(Cn1cnnn1)NCc1ccccc1,29.6
21,COc1ccc(CN2C(=O)c3ccccc3C2=O)cc1C(=O)N(C)CC(=O)Nc1c(C)cccc1C,-16.7
22,Cc1cccc2nc(CSc3ccccc3C(=O)O)cn12,26.3

row,SMILES,"hERG current change (%, negative = inhibition) at 10uM [%]"
1,Cc1cc(C)cc(NC(=O)C(OC(=O)c2ccc(NC(=O)CC#N)cc2)c2ccccc2)c1 (centres unmarked),-6.68
2,COc1ccc(-n2nnnc2SCC(=O)N2CCN(C(=O)c3ccco3)CC2)cc1OC,-3.54
3,Cc1ccc(Nc2nc(N)nc(CN3CCN(Cc4ccc5c(c4)OCO5)CC3)n2)cc1Cl,-81.2
4,CCCC(=O)Nc1ccc2c(c1)Cc1ccccc1-2,7.33
5,O=C(NCCc1ccccc1)c1cccnc1N1CCCCCC1,-9.27
6,O=C(CN1C(=O)COc2ccccc21)NCCN1CCCC1,13.6
7,COc1ccc(C(=O)NNC2=CC(=O)CC(C)(C)C2)cc1,1.65
8,O=C(CSc1nn(-c2ccc(F)cc2)c(=S)s1)NC(=O)NCc1ccco1,2.66
9,COc1cccc(C2C([N+](=O)[O-])=C(N)Oc3cc(C)oc(=O)c32)c1 (centres unmarked),-5.36
10,CCOc1ccc(N(CC(=O)N2CCCCC2)S(=O)(=O)c2ccc(Cl)cc2)cc1,-23.1
11,Br.FC(F)(F)c1nnc2n1N=C(c1ccccc1)CS2,21.3
12,CC(C)CNC(=O)C1Nc2ccc(C(F)(F)F)cc2C2C=CCC12 (centres unmarked),11.3
13,Cc1csc(NC(=O)CSc2nc(C)cs2)n1,5.5
14,O=C(N/N=C/c1cc([N+](=O)[O-])ccc1O)Nc1ccccc1,18.2
15,Cc1nc(NC(C)C)c2oc3ccccc3c2n1.Cl,-11.7
16,COc1ccccc1CNC(=O)Cn1nnc(-c2ccncc2)n1,1.05
17,COc1ccc(/C(C)=N/N2C(C)CCCC2C)c(OC)c1 (centres unmarked),2.37
18,CC(=O)c1ccc(NC(=O)CSc2nc3[nH]ncc3c(=O)[nH]2)cc1,13.6
19,CC1(OC(=O)c2ccco2)C(=O)C=C2C=C(c3ccsc3)OC=C2C1=O (centres unmarked),9.22
20,COc1ccc(C(=O)NNC(=O)Cc2ccc([N+](=O)[O-])cc2)cc1,0.758
21,C=CCNC(=O)CN1CCC(O)(c2ccc(F)cc2)CC1,-5.8
22,O=C(Nc1c2c(nn1-c1ccccc1)CS(=O)C2)c1ccc(S(=O)(=O)N2CCOCC2)cc1 (centres unmarked),17.4
